Several values for one entry are separate records, joined by “and”; a condition that tells them apart may be missing. Equal entries are not always repeated. Out of some 2,000 compounds screened, about 45 (2%) were called active.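 How the source made its calls: active means inhibition above the mean of all tested compounds plus 3 SD (cut at about 49% in these data); inactive means the rest.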 Some of the results follow.

The text below walks through data of PubChem BioAssay AID493035 (The Scripps Research Institute Molecular Screening Center, 2011).

For the test, the target named is Perilipin-5 (Homo sapiens) + 1-acylglycerol-3-phosphate O-acyltransferase ABHD5 (Homo sapiens) (UniProt Q00G26+Q8WTS1). Put plainly: blockers of ABHD5 binding to perilipin-5 – cell lysate, split luciferase complementation, luminescence, NIH validation set, pilot screen (AID 493035).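 Further: 0% = DMSO only wells while the 100% control is not stated.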 Conditions: split G. princeps luciferase complementation, lysates, 4 h; at 7.9 µM, hits give high values.
Sequence of UniProt Q00G26 (Q00G26 whole entry, looked up): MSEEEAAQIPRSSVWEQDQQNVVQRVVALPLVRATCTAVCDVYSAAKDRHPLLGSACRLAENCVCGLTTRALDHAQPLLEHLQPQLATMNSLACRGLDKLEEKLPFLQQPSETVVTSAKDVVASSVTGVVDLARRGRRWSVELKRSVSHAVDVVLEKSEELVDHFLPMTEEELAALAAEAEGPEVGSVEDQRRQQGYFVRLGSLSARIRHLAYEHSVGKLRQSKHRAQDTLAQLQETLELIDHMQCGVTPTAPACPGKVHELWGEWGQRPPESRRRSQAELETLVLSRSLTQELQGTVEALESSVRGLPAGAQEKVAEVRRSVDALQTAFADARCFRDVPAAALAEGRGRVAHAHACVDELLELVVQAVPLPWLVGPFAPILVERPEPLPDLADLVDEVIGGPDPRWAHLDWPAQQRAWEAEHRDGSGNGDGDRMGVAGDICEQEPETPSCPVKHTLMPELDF
Sequence of UniProt Q00G26 (Q8WTS1 whole entry, looked up): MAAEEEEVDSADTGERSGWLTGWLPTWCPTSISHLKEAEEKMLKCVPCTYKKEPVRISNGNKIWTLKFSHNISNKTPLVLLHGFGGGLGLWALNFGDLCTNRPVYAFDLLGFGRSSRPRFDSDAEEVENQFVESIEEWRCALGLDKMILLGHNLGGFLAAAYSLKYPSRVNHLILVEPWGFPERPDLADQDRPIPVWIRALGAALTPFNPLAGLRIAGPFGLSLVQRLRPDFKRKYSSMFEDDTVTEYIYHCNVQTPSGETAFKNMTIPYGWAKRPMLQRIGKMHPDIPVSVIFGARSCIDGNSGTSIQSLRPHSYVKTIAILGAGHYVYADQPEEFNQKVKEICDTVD
`COc1cc2ccc(=O)oc2c(O)c1OCC=C(C)C`: the inhibition is inactive: -9.96%.
Next, `COc1ccccc1C(=O)N=C1NC(=O)CC2C(=O)NCCN12` (stereo not drawn): inactive: -12.7%; `COc1cc(C(=S)N(C)C)ccc1O`: inactive: 10.5%; `CCn1c(N2CCN(CC(=O)c3c(C)n(C)c4ccc(OC)cc34)CC2)nc2c1c(=O)[nH]c(=O)n2C`: inactive: 8.43%.
As for `COc1ccc(C(=O)OCc2cc3cccc(C)c3[nH]c2=O)cc1`, the inhibition was inactive: 8.03%.
In the case of `COCc1cc(=O)[nH]c(/N=C(\N)Nc2ccc(Oc3ccccc3)cc2)n1`, the inhibition was inactive: -7.26%.
For `N/C(=N\OC(=O)CCCOc1ccc(Cl)cc1Cl)c1ccncc1`, the inhibition was inactive: 14.3%.
Next, `CCOc1cc2c3c(c1)C(C)=CC(C)(C)N3C(=O)C2=O`: inactive: 45.4%.
As to `CC1(C)CC(=O)C(C2=NC(C)(C)Cc3ccccc32)=C(O)C1`, the inhibition was inactive: -2.8%.
Next, `O=C1CCCCCN1Cc1ccccc1`: inactive: 9.82%; `C#CCOc1ccc2c(C)cc(=O)oc2c1`: inactive: 3.78%.
As to `Cc1ccc2c(c1)OC(=O)CC2c1ccccc1` (stereo not drawn), the inhibition was inactive: -5.6%.
Turning to `CS(=O)(=O)NCc1ccc(C(=O)NCc2ccccc2)cc1`, the inhibition is inactive: -6.72%.
Consider `C/C(=N/N1CCN(Cc2cccc3ccccc23)CC1)c1cccnc1`, for which the inhibition was inactive: -8.01%.
Regarding `Cc1cccc(Nc2ncccc2C(=O)O)c1C`, the inhibition was inactive: -0.22%.
`Cc1ccc(OCCSc2ncccn2)c(C)c1`: the inhibition is inactive: -4.83%.
Take `O=C(Cc1ccccc1[N+](=O)[O-])NCc1ccncc1`: the inhibition was inactive: -4.03%.
Next, `Cc1cc(OCC(=O)C(C)(C)C)c2c(C)c(C)c(=O)oc2c1`: inactive: -3.13%.
`CCOC(=O)c1c(O)c2c([nH]c1=O)CCCC2`: the inhibition is inactive: -6.36%.
With `O=C(N/C(=C/C=C\c1ccccc1)C(=O)N1CCOCC1)c1ccc(Br)cc1`, the inhibition was inactive: -0.71%.
For `CC(CN1c2ccccc2Sc2ccccc21)N(C)C` (stereo not drawn) the value was inactive: -12.2%; for `COc1ccc(NC(=O)N2CCCCC2c2cccnc2)cc1` (stereo not drawn), inactive: -6.11%.
With `NS(=O)(=O)c1cc2c(cc1C(F)(F)F)NC(Cc1ccccc1)NS2(=O)=O` (stereo not drawn), the inhibition is inactive: 1.6%.
Turning to `COc1ccc([C@H]2[C@H](C(=O)OC(C)(C)C)N3N=Cc4ccccc4C3C23C(=O)c2ccccc2C3=O)cc1OC` (stereo partly drawn), the inhibition was inactive: 0.07%.
Turning to `CCOC(=O)C1=C(C)NC(C)=C(C(=O)OC)C1c1cccc([N+](=O)[O-])c1` (stereo not drawn), the inhibition is inactive: 3.99%.
In the case of `CC(=Nc1ccccc1)C1=C(O)CCCC1=O`, the inhibition is inactive: 0.34%.
Take `O=c1c(C(c2ccccc2)c2c(O)sc3ccccc3c2=O)c(O)sc2ccccc12`: the inhibition was inactive: 1.05%.
For `Cc1ccc(N2C(=O)c3ccccc3C2=O)cc1C`, the inhibition was inactive: -3.44%.
`CN(CCc1cnn(C)c1)Cc1nc(CC2CC2)no1`: the inhibition is inactive: 2.59%.
`CCOC(=O)c1ccc2[nH]c(C)c(CCC(C)=O)c(=O)c2c1`: the inhibition is inactive: -10.6%.
With `O=C(NCCc1c[nH]c2ccccc12)OCCSS(=O)(=O)O`, the inhibition is inactive: 6.19%.
Take `CCn1cc(C(=O)O)c(=O)c2cc(F)c(N3CCNCC3)cc21`: the inhibition is inactive: -3.3%.
With `CC1(C)CC(=O)c2cn3c(nc2C1)nc1ccccc13`, the inhibition was inactive: -0.46%.
Next, `Cc1ccc(C(=O)O)cc1NC(=O)c1cccs1`: inactive: -5.26%; `CC(C)NNC(=O)c1ccncc1`: inactive: 0.95%; `CC(=O)N(CCC1(C(C)C)CCOC(C)(C)C1)Cc1ccco1` (stereo not drawn): inactive: 7.02%.
For the compound `CC(=O)N=c1sc(S(N)(=O)=O)nn1C`, the inhibition was inactive: 1.87%.
Take `Cc1cc(C)c(NC(=O)NC(=O)C(Cl)(Cl)Cl)c(C)c1`: the inhibition was inactive: -18.5%.
Next, `N=c1ccn(CC(=O)NC(N)=O)c2ccccc12`: inactive: 3.61%.
Regarding `OC(CCN1CCCCC1)(c1ccccc1)c1ccccc1`, the inhibition was inactive: 2.21%.
With `CC(=O)[C@H]1[C@H](C#N)C[C@H]2[C@@H]3CC=C4C[C@@H](O)CC[C@]4(C)[C@H]3CC[C@@]21C`, the inhibition was inactive: 10.9%.
For the compound `COc1ccc(C(CC(=O)N2CCOCC2)C(C)C)cc1` (stereo not drawn), the inhibition was inactive: 0.73%.
As for `COc1c2occc2c(OC)c2c(=O)cc(C(F)(F)C(F)(F)F)oc12`, the inhibition was inactive: -2.44%.
Regarding `CCOc1ccc2[nH]c3c(=O)n(CCc4ccc(OC)cc4)cnc3c2c1`, the inhibition is inactive: -8.8%.
Consider `Cc1ccccc1C(=O)NNc1ncnc2c1cnn2C`, for which the inhibition is inactive: -9.85%.
As to `COc1ccc2[nH]cc(C3N4CC5(C)CN3CC(C)(C4)C5=O)c2c1` (stereo not drawn), the inhibition was inactive: -6.17%.
Turning to `C=CCc1ccc(OCC(O)COc2ccc(CC=C)cc2OC)c(OC)c1`, the inhibition is inactive: -8.22%.
For `COc1ccc(-c2[nH]ncc2CN(C)C(C)c2ccon2)c(OC)c1` (stereo not drawn), the inhibition is inactive: -1.59%.
For `Cc1ncoc1C(=O)N1CCCC(C(=O)c2ccc(-c3ccccc3)c(F)c2)C1` (stereo not drawn) the value was inactive: 1.46%; for `CCSC(=O)CCCCCCCCCCCO`, inactive: -8.36%; for `C[C@H](CCC(=O)O)[C@H]1CC[C@H]2[C@@H]3C(=O)C[C@@H]4CC(=O)CC[C@]4(C)[C@H]3CC(=O)[C@]12C`, inactive: -1.75%.
Turning to `CCOc1ccc(C(=O)NC(C)C2COc3ccccc3O2)cc1` (stereo not drawn), the inhibition was inactive: 5.34%.
For the compound `Cc1nc2sccn2c(=O)c1CCN1CCC(=C(c2ccc(F)cc2)c2ccc(F)cc2)CC1`, the inhibition is inactive: 3.16%.
Turning to `CCOC(=O)C1=C(C)NC(C)=C(C(=O)OC)C1c1cccc(Cl)c1Cl` (stereo not drawn), the inhibition is inactive: 1.49%.
Consider `Cc1ccc2[nH]c3c(c2c1)CCNC3=O`, for which the inhibition is inactive: -3.14%.
As for `CC1(C)CC(=O)C2=C(C1)c1c(ccc3ccccc13)NC2c1ccco1` (stereo not drawn), the inhibition was inactive: 8.52%.
Turning to `O=C(O)CCC(=O)c1ccc(-c2ccccc2)cc1`, the inhibition is inactive: -14.3%.
Regarding `O=C1c2cccc3cccc(c23)C(=O)N1c1ccccn1`, the inhibition was inactive: 0.22%.
For `CCN(CC)Cc1c[nH]c2c(C(=O)OC)cccc12` the value was inactive: -10.3%; for `COc1ccc(/C=C/C(=O)c2cc3cccc(OC)c3oc2=O)cc1`, active: 69.5%; for `CN1CCN2c3ccccc3Cc3ccccc3C2C1` (stereo not drawn), inactive: -7.6%.
On to `O=C(O)c1cnccn1`, for which the inhibition was inactive: 4.21%.
For `Cc1ccc(/C=N/NC(=O)C2(C)CC2(Br)Br)cc1` (stereo not drawn), the inhibition is inactive: 3.81%.
As for `O=[N+]([O-])c1ccc(O)c2ncccc12`, the inhibition is inactive: 6.68%.
For `COc1ccc(C2OC[C@H]3O[C@H](O)[C@H](NC(C)=O)[C@@H](O)[C@@H]3O2)cc1` (stereo partly drawn), the inhibition is inactive: -13.3%.
Consider `N=c1nc(N2CCCCC2)cc(N)n1O`, for which the inhibition was inactive: 7.56%.
On to `CC(=O)Oc1ccc(C(c2ccc(OC(C)=O)cc2)c2ccccn2)cc1`, for which the inhibition is inactive: 7.59%.
For `CCC1(c2ccccc2)NC(=S)N(c2ccc(C)c(C)c2)N1` (stereo not drawn) the value was inactive: 20.9%; for `Cc1nc2ccccc2n1CC(O)Cn1c2ccccc2c2ccccc21` (stereo not drawn), inactive: 2.08%.
Turning to `O=C(O)CCCCCN=C1CCc2ccccc2N1`, the inhibition was inactive: -9.11%.
On to `Cc1ccc2c(CN3CCN(Cc4ccc5c(c4)OCO5)CC3)cc(=O)oc2c1C`, for which the inhibition is inactive: 17.1%.
Take `COC(=O)C1=NN(C(=O)c2cccc(Br)c2)C(O)(c2ccc(Cl)cc2)C1` (stereo not drawn): the inhibition is inactive: 0.8%.
`CC(NCCc1ccc(O)cc1)C(O)c1ccc(O)cc1` (stereo not drawn): the inhibition was inactive: -1.38%.
Regarding `CC(=O)OCC1OC(n2ccc(=O)[nH]c2=O)C(O)C1O` (stereo not drawn), the inhibition is inactive: -2.69%.
Regarding `COc1cccc(CC(=O)NCC2COc3ccccc3O2)c1OC` (stereo not drawn), the inhibition is inactive: 9.79%.
In the case of `CN(C)CCOC(=O)C(c1ccccc1)C1(O)CCCC1` (stereo not drawn), the inhibition was inactive: -2.98%.
For the compound `C[C@]12CCC3C(CC=C4C[C@@H](O)CC[C@@]43C)C1CCC2[C@]1(C)CCC(=O)O1` (stereo partly drawn), the inhibition is inactive: -1.05%.
Take `Nc1[nH]c(=O)ncc1F`: the inhibition was inactive: 1.19%.
`CC(C)(C)OC(=O)N1CC(O)CC1C(=O)OCC(=O)c1ccc(Cl)cc1` (stereo not drawn): the inhibition is inactive: -4.92%.
Take `COc1ccc(/C=C\C(=O)c2c(O)ccc3c(C)cc(=O)oc23)cc1OC`: the inhibition is active: 59.1%.
In the case of `CCOC(=O)c1oc2cc(OCC(N)=O)ccc2c(=O)c1-c1ccc(OC)c(OC)c1`, the inhibition was inactive: -3.09%.
Turning to `S=C(NCCOCCOCCNC(=S)Nc1ccccc1)Nc1ccccc1`, the inhibition was inactive: 4.01%.
As for `Nc1ccc(C(=O)O)c(O)c1`, the inhibition is inactive: -11.3% and inactive: -10.4%.
Next, `O=C(O)c1ccccc1Nc1cccc(C(F)(F)F)c1`: inactive: 4.65%; `O=C(NCCc1nc2ccccc2[nH]1)c1cccc(Br)c1`: inactive: -3.16%; `Cc1ccc2c(c1)c(C)cc(=O)n2CCC(=O)O`: inactive: -14.4%.
For the compound `CC(C)(C)NCC(O)COc1ccccc1C(=O)CCc1ccccc1` (stereo not drawn), the inhibition is inactive: -7.08%.
Consider `OC(CCN1CCCC1)(c1ccccc1)C1CCCCC1` (stereo not drawn), for which the inhibition is inactive: -8.34%.
Next, `COCCNC(=O)CSc1ccc(Cl)cc1`: inactive: -12.6%; `CC(C)(C)c1ccc(/C=C/C(=O)N2CCCCC2)cc1`: inactive: -11.6%.
Regarding `NS(=O)(=O)c1cc2c(cc1Cl)NC(C1C[C@H]3C=C[C@@H]1C3)NS2(=O)=O` (stereo partly drawn), the inhibition was inactive: 4.08%.
Next, `C[C@H](NC(=O)C1(c2ccccc2)CCN(C(=O)[C@H]2CSCN2C(=O)OC(C)(C)C)CC1)C(=O)O`: inactive: 7.39%; `COc1cc(CO)ccc1OCc1nnnn1-c1ccc(C)cc1`: inactive: -2.14%.
Next, `CCCCOc1ccc(C(=O)CCN2CCCCC2)cc1`: inactive: 29.9%; `COc1ccc(/C=C(/C#N)c2cccnc2)cc1OC`: inactive: -1.08%.
Next, `Cc1c(CCOC(=O)CC23CC4CC(CC(C)(C4)C2)C3)sc[n+]1Cc1ccc([N+](=O)[O-])cc1`: inactive: -7.85%.
As to `CC(=O)OCC(=O)[C@@]1(O)CC[C@H]2[C@@H]3CCC4=CC(=O)C=C[C@]4(C)[C@H]3[C@@H](O)C[C@@]21C`, the inhibition was inactive: 3.85%.
`COC(=O)c1ccc(NC(=O)c2ccccc2SC)cc1`: the inhibition is inactive: 6.35%.

Broadly, the inhibition is the change of the read-out against control, counted positive when it falls.
